Results taken from ChEMBL document CHEMBL4888484, “Replenishing the malaria drug discovery pipeline: Screening and hit evaluation of the MMV Hit Generation Library 1 (HGL1) against asexual blood stage Plasmodium falciparum ,using a nano luciferase reporter read-out” (2022).
Screen size: about 150,000 compounds; about 540 (0.36%) showed an effect of 50% or more. This is one part of the list.

tested on: Plasmodium falciparum; experiment: Primary screen in NF54 nanoGlo assay, in single point, at 2uM, 72h; a lower Z score goes with more inhibition; assay type: functional, Erythrocyte; settings: timepoint 72 hour

| Structure (SMILES) | % Inhibition [%] | Z score |
| --- | --- | --- |
| COc1cccc(COC(=O)C2=CN(C)S(=O)(=O)N=C2C)c1 | 2 | -0.43 |
| COC(C)(C)C[C@H](C)NC1(Cc2ccccc2)CC1 | -8 | 1.6 |
| CCN(CCC#N)C(=O)CNc1cc(F)cc(Br)c1 | -12 | 1.22 |
| O=C(CC1CCCCC(=O)N1)Nc1ccccc1C(O)C(F)(F)F (stereo unspecified) | 4 | -0.45 |
| COc1cc(NC(=O)N[C@H]2CCN(c3ccc(F)cc3)C2=O)cc(OC)c1 | 2 | -0.27 |
| CN1CC2(CCN(c3nccc(N)n3)CC2)C[C@@H](c2ccccc2)C1=O | -9 | 1.98 |
| NC(=O)[C@H]1CCN(C(=O)C2=CCCC2)C1 | 0 | -0.01 |
| Cn1nccc1C(=O)N1CC[C@H](CCOc2ccccc2F)C1 | -21 | 4.07 |
| Cc1cc(C)c2c(c1)N(Cc1nccnc1C)CCO2 | -2 | 0.32 |
| CC(=O)N[C@H]1C[C@H]2CN(C(=O)CCc3ccccc3)CC(=O)N2C1 | -12 | 1.65 |
| Cc1cnn(C)c1S(=O)(=O)N1CC(c2cccc(Cl)c2)C1 | -3 | 0.58 |
| Cc1ccc(O[C@H]2COCC[C@H]2NC(=O)C2=NN(C)C(=O)CC2)cn1 | -1 | 0.14 |
| NC(=O)c1ccccc1NC(=O)c1coc(NC(=O)C2CCC2)n1 | 0 | -0.04 |
| CCCCn1nc(CC(N)=O)nc1[C@@H]1CN(C)c2ccccc2O1 | -13 | 1.77 |
| Cc1ccc(N2CN(CC(=O)Nc3ccc(F)cc3F)S(=O)(=O)c3cccnc32)cc1 | -12 | 1.33 |
| O=C(c1ncn2c(=O)n(-c3ccccc3)nnc12)N1CCCC1 | 34 | -3.86 |
| CC(=O)N[C@H]1CCN(Cc2cc3ccc(C)cc3[nH]c2=O)C1 | -8 | 1.31 |
| Cc1cccc(C(NC(=O)[C@@H]2CCC(=O)N2)c2cccc(C)c2)c1 | -3 | 0.64 |
| CC(C)Cn1ncc(-c2nc(-c3ccncc3)no2)c1C(F)F | -2 | 0.33 |
| CC(=O)Nc1ccc(NC(=O)c2cn3c(n2)C(=O)N[C@H](c2ccc(F)cc2)C3)cc1 | -3 | 0.41 |
| Cc1oc(-c2ccccc2F)nc1C(=O)OCC(C)(C)C1OCC(C)(C)CO1 | -13 | 1.61 |
| CCOc1ccc(-n2c(CN3CCN(C(=O)Nc4ccc(F)cc4)CC3)nc3cccnc32)cc1 | 3 | -0.37 |
| CC(C)c1ccc(-c2cc3n(n2)C[C@@](C)(C(=O)NC2CCCCC2)N(Cc2ccccc2)C3=O)cc1 | 20 | -3.19 |
